Laboratory results reported in paper PMC12136788.
The list shows a part of the results.

T1: UNK ZnF1-3 (human, UniProt Q9C0B0 31-174)
T1 sequence: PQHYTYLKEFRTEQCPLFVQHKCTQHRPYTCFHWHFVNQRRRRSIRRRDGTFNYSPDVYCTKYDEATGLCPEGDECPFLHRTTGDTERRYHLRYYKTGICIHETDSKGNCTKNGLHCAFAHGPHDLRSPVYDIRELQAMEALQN

B1: chr17:73519777:73519778:+_ENSG00000182173_ENST00000333213|hu_hu|FALSE|FALSE (ssRNA)
RNA: GGGAGUUCUACAGUCCGACGAUCUUUGCCAGGGUUAUUCUUUCGGAAUGUGGCCACAGCGUCGGCCUGGUAAACAUCAAAGAUGAUUUCCAAGCCCCCAGACUUCUCCAACAGCCGGGCACCUCCAUCAGGAAGGUGUGUUGUCAACAGAGGAUUGAGCAUCA
B2: chr8:74858975:74858976:-_ENSG00000154582_ENST00000284811|hu_mus|hu_hu_hu_mus_True|1_68 (ssRNA)
RNA: GGGAGUUCUACAGUCCGACGAUCGACCUUGUAGGUAAAAUACAUGCACACUUUUGAUAGCACAUGUGAAGGUAUCUCUCUAAAAUUGACCUCGUUGGUUUCAUUCUCAGCAAACUGACCUGGACCACUCAACAUAGCUUUUAUCAACAGAGGAUUGAGCAUCA
B3: chr4:87735950:87735951:+_ENSG00000163629_ENST00000511467|hu_mus|FALSE|FALSE (ssRNA)
RNA: GGGAGUUCUACAGUCCGACGAUCUAGACUCAGUGUGUCUUUGUAACAACGUCCACUAUGAUCAAAUGCUGUCUCCAGCCCUAAGACCUGCUGGUUCAGUUAGUGAAAAAGGAGUUUUAAUGACCAUCAGUGGUUGAAGUGGCUCAACAGAGGAUUGAGCAUCA
B4: chr7:141438946:141438947:+_ENSG00000106028_ENST00000265304|hu_mus|hu_hu_hu_mus_True|8_38 (ssRNA)
RNA: GGGAGUUCUACAGUCCGACGAUCGACGAAAUACCUGUAACACAGGUCUUCGAAACAUGGCUUCUGUUUUUCUUACAACCUAAUCUUUAGGCUUUUCCUGACGAUCUGAAAGAAAAGAGAAAAAUGAGCAGGGGAUCAACUACACAACAGAGGAUUGAGCAUCA
B5: chrX:160370135:160370136:+_ENSMUSG00000031367_ENSMUST00000069041|mus_mus|FALSE|FALSE (ssRNA)
RNA: GGGAGUUCUACAGUCCGACGAUCAAUGAAGCAGCUUAGCAAAACAGUAAUACUGACAAGACAUCAUCUUACACCAUUAGCUAACAUGGACAUGAGAGGCAGUGACCAUCUACAGUGUGAAAUGCCACAAGAAGUCAUCAGCAACAACAGAGGAUUGAGCAUCA
B6: chr2:155483576:155483577:-_ENSMUSG00000038324_ENSMUST00000041059|mus_mus|FALSE|FALSE (ssRNA)
RNA: GGGAGUUCUACAGUCCGACGAUCCUGAGCAUUUUUGGCAAGAAGCGUGUGUUUGUCGUCAUUCCCCGUGUCCAUCUCUGAAAUGGUGACAGCCAGGAUCCUGCAGAAGUUAGCAAGCUGCUGCUGAUCGAAAUUGGAUACUAACAACAGAGGAUUGAGCAUCA
B7: chr9:108469239:108469240:-_ENSMUSG00000070283_ENSMUST00000074208|mus_mus|FALSE|FALSE (ssRNA)
RNA: GGGAGUUCUACAGUCCGACGAUCCAGCCGGUCGACGUGCCGACAGAGCGGCGCAGGUCGCGUUCGGAAAAGGCAGCGAAAUCCUAGAGCAGUAGCCAUGGCUGCAACGGCGCUUAACGACCCGGUCGUAGGGACAGAGUUGUCCAACAGAGGAUUGAGCAUCA
B8: chr16:94651144:94651145:+_ENSMUSG00000040785_ENSMUST00000117648|mus_hu|mus_mus_mus_hu_True|8_68 (ssRNA)
RNA: GGGAGUUCUACAGUCCGACGAUCAUUUUCUUGAAUCAAGUGGCGAAUAACAUAGUCCACUGCUUCAUGGACAAAAUUUCUGCUAGAAAAACAGGUUGUAUAGUCUUCUGUGCUCAAAACUUUCCAAGAGAGCAGCUCUUUGAGCAACAGAGGAUUGAGCAUCA
B9: chr5:40767622:40767623:-_ENSG00000132356_ENST00000397128|hu_mus|hu_hu_hu_mus_False|48_58 (ssRNA)
RNA: GGGAGUUCUACAGUCCGACGAUCAUCUUUUAUUGCGGCCCUCUUCAUGGGAUCCACCUGCAGCAUAUGUUUCAAAAGGCUAAUCACAGAAGGAUUUAAGUACUGAGGGGUAUAAAAGAUCCCAUCACAUAUCUUCUUAAAAAGCAACAGAGGAUUGAGCAUCA
B10: chr11:77336104:77336105:-_ENSG00000074201_ENST00000525064|hu_mus|hu_hu_hu_mus_False|68_68 (ssRNA)
RNA: GGGAGUUCUACAGUCCGACGAUCCUCACACAUUGCUGUGAACAUCGCCUCCAAUGCUGACUUAUCACUAGGCACAAAUCGAAAUUCAGAAAUGGGUUCAACAUCAUCAUUGUCUUCCUCAUCUUCAUCAGAGAGAGGUUCUUUCAACAGAGGAUUGAGCAUCA
B11: chr2:135883765:135883766:+_ENSG00000115839_ENST00000442034|hu_mus|FALSE|FALSE (ssRNA)
RNA: GGGAGUUCUACAGUCCGACGAUCAGAAUAAACAUCAUUAUCUACAAUGAUCCCUUCUGUCAAAUGAGGCCACGUUGUUGCUAAAUGGAGUUCACUGAUAGGAUCUUCACAGGCACCAAAUGGCAACUUGCCGAACUCCAGGCCCAACAGAGGAUUGAGCAUCA
B12: chr3:150289777:150289778:+_ENSG00000144895_ENST00000460851|hu_hu|motif|central (ssRNA)
RNA: GGGAGUUCUACAGUCCGACGAUCUUUGGCAGGCAUAAAACCAUAUACAGCACAAAACUCAGUAGAACUAGAAUUCCAAACGGCAUCAUAAAUGGGGCCAUUUUUUGGUAAUUGCACUACAGCACUUUCUCCAUUUGUUGCAAUCAACAGAGGAUUGAGCAUCA
B13: chr2:148701057:148701058:-_ENSG00000115947_ENST00000542387|hu_hu|motif|central (ssRNA)
RNA: GGGAGUUCUACAGUCCGACGAUCUGACCGCAGGUUUUUGCUGAUAUUGAAAUGCUUCUGUAGUACUUCUUGCACACUUCGGUCUUCUGAGAGAUACUGAACAUUUUCAUUCCACUUCUCAGCAAAAACCUUGUCUGGAAACUCCAACAGAGGAUUGAGCAUCA
B14: chr5:54662584:54662585:+_ENSG00000039123_ENST00000230640|hu_hu|FALSE|FALSE (ssRNA)
RNA: GGGAGUUCUACAGUCCGACGAUCAAUUUCUUCUACACGUAGUAAGUUCAAAACCAUGUUGUAGGUCAAAUGGAAAGCACUAUUUAGAGGAUCAGCGGAGCCCUUAAGUAAUUGUUUUCCAAUUGUUGGGCUCAUCUUUUCAUCCAACAGAGGAUUGAGCAUCA
B15: chr1:186721242:186721243:-_ENSMUSG00000026620_ENSMUST00000027929|mus_hu|FALSE|FALSE (ssRNA)
RNA: GGGAGUUCUACAGUCCGACGAUCAAAAUAACAAGUAUUAAAAUGUACCUUUACUAGUGGUUUUACAUCGCAUAUAUCACUAAUUAUGAAAGAAAAGUAGGCAAAUGCCCAAUCACAAAGCGGCACAUUAUAGGCAUAAUGAUGCAACAGAGGAUUGAGCAUCA
B16: 90705518_90705638_1207_3pUTR_ENSMUSG00000027282_ENSMUST00000136872|mouse|control|control (ssRNA)
RNA: GGGAGUUCUACAGUCCGACGAUCAUGUCUCACUUCAAAUAACUAAUGGGGAACCCCAGUGGUAAAAGAUGUUGUGCUAGGACAAAGAACAAAAAAGGCAGACACCAAUCACCUCCAUUUUCCCAAGAUUAAAUGAUUAUUAAACAACAGAGGAUUGAGCAUCA
B17: chr9:108415247:108415248:+_ENSMUSG00000032604_ENSMUST00000006838|mus_hu|FALSE|FALSE (ssRNA)
RNA: GGGAGUUCUACAGUCCGACGAUCAUUGCCUCAAAGAGCAGCAGUGACUCCUCCAUGGGACGGUCUCUCCAGGGUGAAGGCAGAGUAUUAUGGCCUUUGAGCUCCUCUCCUCGCUGGUGGCACACAUAAGCCAGACCCCUGCGGCAACAGAGGAUUGAGCAUCA
B18: chr6:38652254:38652255:-_ENSG00000124767_ENST00000373365|hu_hu|hu_hu_hu_mus_False|28_48 (ssRNA)
RNA: GGGAGUUCUACAGUCCGACGAUCCGAGAACUUCAUAGCAGGGAAGUCAAGCUUCUGCAGGAGGGUCAGUCCAAGAACCCUCGUAUAAAAAUCCAGUGACUUCUUAGGAUCCUUCACUCUUAGCAUCGUUUGCUGCAGUAGAAACAACAGAGGAUUGAGCAUCA
B19: chrX:71549400:71549401:+_ENSMUSG00000019087_ENSMUST00000019231|mus_hu|mus_mus_mus_hu_False|28_88 (ssRNA)
RNA: GGGAGUUCUACAGUCCGACGAUCGCAGUAGGAAGAGGGAAGCUCUUCAUCCACUGUCGCUGCAGGGUGGGAAAGCAACAACACGGACACCGUCCCACCCUCAACCCUCUCAGGUGUACAGGGUCACACAAUCUGGGUCAAAGACAACAGAGGAUUGAGCAUCA
B20: chr10:24872911:24872912:-_ENSG00000107863_ENST00000396432|hu_mus|FALSE|FALSE (ssRNA)
RNA: GGGAGUUCUACAGUCCGACGAUCCUGGUAAAUGGAAGGAAACUUGUUACUGAUAAAAUGCAUUCAUUUAUUCAAUUUUCUAAUUUUAACAAUAUGGCACCCUAAAAAUCAAAUGUACUUUUAUCAUGAGGCACUUUUGUUAGUCAACAGAGGAUUGAGCAUCA
B21: chr8:113366719:113366720:-_ENSMUSG00000033732_ENSMUST00000042012|mus_mus|motif|central (ssRNA)
RNA: GGGAGUUCUACAGUCCGACGAUCCAUAUUCUUUGAUGGCUGGUAUUCCAAGAUAACAAUCCGGCCUGAGUCACUGCCAACGGCAAUGUAGUCUUUGGUGCCACCUGUUAGCCUAAACGCCAUAAGUGACCGGAUAACACCAAACAACAGAGGAUUGAGCAUCA
B22: chr1:66486420:66486421:+_ENSMUSG00000015222_ENSMUST00000077355|mus_mus|motif|central (ssRNA)
RNA: GGGAGUUCUACAGUCCGACGAUCUUAAAAUUUAUUUUUAAAUAGGGAGAGAACCCUGCUAACAUCUACUUUCACAUACCGGAAAUUGCAACACCAAAGGGUGCAGGAGACACAGAUACUGUGAAUAAAGAAGUAUCAUAUUCACAACAGAGGAUUGAGCAUCA

The binders below were run against T1, UNK ZnF1-3 (assay: nsRBNS (natural sequence RNA bind-n-seq); RBNS binding buffer (assumed for nsRBNS): 25 mM Tris pH 7.5, 150 mM KCl, 3 mM MgCl2, 0.01% Triton X-100, 500 ug/ml BSA, 20 U/ml SUPERase-In, 4 C; UNK is unkempt and MSI1 is Musashi-1; names of the RNAs are library labels; protein concentration not given here; high values mean tight binding).

Row | Binder | binding signal
1 | B1 | 0.858 enrichment R
2 | B2 | 0.85 enrichment R
3 | B3 | 0.628 enrichment R
4 | B4 | 0.754 enrichment R
5 | B5 | 1.52 enrichment R
6 | B6 | 1.28 enrichment R
7 | B7 | 0.576 enrichment R
8 | B8 | 0.833 enrichment R
9 | B9 | 1.39 enrichment R
10 | B10 | 0.926 enrichment R
11 | B11 | 1.48 enrichment R
12 | B12 | 0.964 enrichment R
13 | B13 | 0.237 enrichment R
14 | B14 | 0.658 enrichment R
15 | B15 | 0.91 enrichment R
16 | B16 | 1.91 enrichment R
17 | B17 | 0.734 enrichment R
18 | B18 | 0.646 enrichment R
19 | B19 | 0.481 enrichment R
20 | B20 | 1.06 enrichment R
21 | B21 | 0.607 enrichment R
22 | B22 | 2.29 enrichment R
